# Data from PubChem BioAssay (NCI).
#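 Dose response: 5 concentrations. Exposure: 48 h. Format: 96-well plates. Endpoint: linear interpolation; highest concentration if not reached. The concentration for 50% growth inhibition is given as GI50. TGI denotes the concentration required for complete inhibition of growth.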 Numbered stars: 1 amine (or outer) side, 2 acyl side, 3 side chain; on linkers, the order of the positions; unused ones are H or OH. Bridge positions count the residues as written; N and C are the ends. Square brackets hold non-standard residues; d marks the D form. Peptide text beside a SMILES is read from it. * marks the point of attachment. X31 = O=C(C(CCCCNO[*:3])N[*:1])[*:2]; Fmoc = O=C(OCC1c2ccccc2-c2ccccc21)*
# Tested on: NCI-H322M lung
# Assay: NCI anticancer screen, dose series, 48 h
SMILES,GI50 [µM],TGI [µM]
CCC(=O)Nc1ccc(C)c(-c2ccc(C(=O)NCC3CC3)cc2)c1,> 25,> 25
C=CCN1/C(=C2\SC(=S)N(c3ccc(C)cc3)C2=O)Sc2c1nc[nH]c2=O,–,> 100
COc1ccc2oc(C(=O)O)c3c2c1CCC3CCC(=O)O (stereo not given),–,> 100
CCCCCCCCCCCCCCCCOP(=O)(O)OCC(NC(C)=O)C(=O)O (stereo not given),–,> 100
CCN(CC)c1ccc(/C=C/C(=O)c2cc(C(C)(C)C)c(O)c(C(C)(C)C)c2)cc1,–,> 100
O=C(O)CCC(N=NNc1ccc(-c2nc3ccccc3[nH]2)cc1)C(=O)O (stereo not given),–,> 100
CCc1ccc(C(=Nc2ccc(N(C)C(=O)CN3CCN(C)CC3)cc2)c2c(O)[nH]c3ccc(C(=O)OC)cc23)cc1,0.66,2.03
CCCN(CCC)c1ccc(/C=N/NC(=O)c2cccnc2)c(OC)c1,37.3,> 100
O=C1/C(=C/c2ccc(Cl)cc2)CCC/C1=C\c1ccc(Cl)cc1,> 100,> 100
CC(=O)O[C@@]1(C)[C@@H](C)C(=O)O[C@@H]2CCN3CC=C(COC(=O)[C@]1(C)O)[C@H]23,–,> 100
Cc1ccc(C(=O)/C=C/c2cccc([N+](=O)[O-])c2)cc1,–,> 100
O=[N+]([O-])c1cc(C(F)(F)F)ccc1Sc1ccc(C(F)(F)F)cc1[N+](=O)[O-],67.6,> 100
COc1ccc(NC(C)=O)c(C(O)CCNC(C)=O)c1 (stereo not given),–,> 100
CC(NC(=O)c1ccc(NP(=O)(OCc2ccc([N+](=O)[O-])o2)N(C)CCCCCl)cc1)c1ccc(OCC2CCCCC2)c(C(N)=O)c1 (stereo not given),–,59.8
N#Cc1c(N)nc(N2CCOCC2)c(C#N)c1-c1ccccn1,> 100,> 100
CC1(C)NCCC[C@]2(C)[C@H]3CC[C@@H]4[C@H]5[C@H](C(=O)/C=C/c6ccccn6)CC[C@]5(CO)CC[C@@]4(C)[C@]3(C)CC[C@@H]12,3.37,14.9
NS(=O)(=O)c1ccc(N(/C=C/C(=O)C(F)(F)F)Cc2ccc(Cl)cc2)cc1,19,58.7
O=C(O)c1c(=O)cccc2ssc12,2.49,7.53
Clc1ccc(C[P+]2(c3ccccc3)CCCCC2)cc1,–,> 100
C[C@]12CC[C@@H]3c4ccc(O)cc4CC[C@H]3[C@@H]1CC[C@@H]2OC(=O)CCc1ccccc1,–,45.5
CCN(CC)C1C(=O)NC1C#Cc1ccccc1 (stereo not given),–,> 100
CC(C)C[C@H](NC(=O)[C@H](Cc1ccc(F)cc1)NC(=O)c1ccccn1)B(O)O,–,0.232

SMILES,GI50 [µM],TGI [µM]
COc1cc2c(cc1OC)C(=O)C1(C2)[C@H](c2ccccc2)C2C(=O)c3cc(OC)c(OC)cc3C2[C@H]1c1ccccc1 (stereo not given in full),–,> 100
CCN(CC)Cc1ccc(C(=S)Nc2ccc(C)cc2)s1,–,37.6
CN(C)CCNC(=O)Cn1cnc2cccc([N+](=O)[O-])c2c1=O,–,> 100
CC(C(N)C(=O)NC(C(=O)O)C1OC(n2ccc(=O)[nH]c2=O)C(O)C1O)C(O)c1ccc(O)cn1 (stereo not given),–,> 100
CO/N=C\c1cc(O)c(O)c(/C=N/OC)c1,–,> 100
CSc1nc(C)c(CCOC(C)=O)c(Cl)n1,–,> 100
COc1ccc(C2=C(N)c3ncccc3C2=O)cc1,–,> 100
O=C(NNC(=S)NCc1ccccc1)c1csc(NC(=S)NC2CCCCC2)n1,–,> 100
COc1ccc2c3c(c(C(=O)c4ccccc4)oc13)CCC2,–,> 100
CC(=O)OC[C@@]12Cc3ccc(C)c(O)c3[C@]1(C)[C@@H](OC(C)=O)[C@]1(O)[C@H]([C@@H](OC(=O)c3ccccc3)[C@@H](C)[C@H]1OC(C)=O)[C@H]2OC(C)=O,–,> 50
CC(=O)OCC(C)(COC(C)=O)N1C(=O)C2C3c4ccccc4C(c4ccccc43)C2C1=O (stereo not given),–,> 100
C=C(CO)[C@@H]1CC[C@]2(COC3CCCCO3)CC[C@]3(C)[C@H](CC[C@@H]4[C@@]5(C)C=C(C=O)C(=O)C(C)(C)[C@@H]5CC[C@]43C)[C@@H]12 (stereo not given in full),1.1,2.38
CC(=O)c1ccc2c(c1)CC1(C2)Cc2ccc3c(c2C1=O)CCC3 (stereo not given),–,> 100
CC([C@H]1CCC2C3CCC4C[C@@H](N)CC[C@]4(C)C3CC[C@@]21C)N(C)C (stereo not given in full),3.94,19.1
CC1=C(O)/C(=C/C(C)CCC/C(C)=C/C=C/C(C)CCCc2ccoc2)OC1=O (stereo not given),–,74.6
C=C1CC2CC(O)CC(C1)C2 (stereo not given),–,> 100
C/C(=N\NC(=S)SCc1ccccc1)c1ccccn1,–,10.3
C=C1C(=O)OC2C3C(=C)[C@@H](OC(C)=O)CC3C(C)=CC(OC(=O)C(C)(OC(C)=O)C(C)OC(C)=O)[C@@H]12 (stereo not given in full),–,> 100
C/C(=C\c1cc(C(F)(F)F)n(-c2ccc(N)cc2)n1)[C@@H]1C[C@@H]2O[C@]2(C)CCC[C@H](C)[C@H](O)[C@@H](C)C(=O)C(C)(C)[C@@H](O)CC(=O)O1,0.0474,> 11.1
CCS(=O)(=O)CCn1c(=O)c2c(ncn2C)n(C)c1=O,–,> 100
CC(=O)O[C@@]12CO[C@@H]1C[C@@H](O)[C@@]1(C)C(=O)[C@H](O)C3=C(C)[C@@H](OC(=O)[C@H](O)[C@@H](NC(=O)c4ccccc4)c4ccccc4)C[C@@](O)([C@@H](OC(=O)c4ccccc4)C12)C3(C)C (stereo not given in full),–,> 100
O/N=C1/CC2(N3CCOCC3)C3CC/C(=N\O)C2CC1(Cc1ccccc1)C3 (stereo not given),–,> 100

SMILES,GI50 [µM],TGI [µM]
O=C1OC(=O)C2CCCC3CCCC1C32 (stereo not given),–,> 100
Cc1cc(N2CCOCC2)nc(N(CCCNc2ccnc3cc(Cl)ccc23)Cc2ccco2)n1,2.66,12.5
O=c1[nH]nc(-c2ccccc2)n1/N=C/c1ccccc1Cl,–,> 100
O=C1c2ccccc2-c2c1c1c(O)cccc1n2Cc1ccccn1,56.2,> 100
Oc1c(Br)cc(/C=C/c2cccc(/C=C/c3cc(Br)c(O)c(Br)c3)n2)cc1Br,–,26.8
ONC1=Nc2ccccc2C(=S)N2CSCC12 (stereo not given),–,> 100
CC1(c2ccc(Cl)s2)CC(c2ccc(Cl)s2)=C(C#N)C(=C(C#N)C#N)N1 (stereo not given),–,29.4
CCOC(OCC)N1C(=O)C2(C(OCC)OCC)CC3C(OC(=O)N3N)c3cccc1c32 (stereo not given),–,> 100
OCCNc1nc(Nc2ccc(Cl)c(Cl)c2)nc2ccccc12,12.3,25.5
CSc1nc2c(c(N3CCOCC3)n1)C(O)n1c(nc3ccccc31)S2 (stereo not given),–,> 100
COc1cc(C2=N/C(=C/c3cccs3)C(=O)O2)cc(OC)c1OC,–,> 100
CC1=NN(c2nc(N)nc(C/C(N)=N/O)n2)C(C)(C)C1,–,> 100
CC1CN(c2cc3c(cc2F)c(=O)c(C(=O)O)cn3-c2ccc(F)cn2)CC(C)N1 (stereo not given),–,> 100
O=C(CC(=O)c1cccc2ccccc12)C(=O)NC1C2CC3CC(C2)CC1C3 (stereo not given),–,> 100
O=C1c2ccccc2C(=O)c2c(Nc3cc4c5c(ccc6c7ccc8c9c(cc(Nc%10cccc%11c%10C(=O)c%10ccccc%10C%11=O)c(c3c56)c97)-c3ccccc3C8=O)C(=O)c3ccccc3-4)cccc21,–,> 100
CC1(C(=O)Nc2ccc3ccccc3c2)CC2(C)CC(C)(C1)C(O)NC2=O (stereo not given),–,> 100
O=C(Nc1cccc(Cl)c1)c1cccc(NC2=C(Cl)C(=O)N(Cc3ccccc3)C2=O)c1,24.1,> 100
NC(=O)CNC(=O)C1CCCN1C(=O)C1CCCCNOC(=O)CCC(NC(=O)OCC2c3ccccc3-c3ccccc32)C(=O)NC(Cc2c[nH]c3ccccc23)C(=O)N1 (stereo not given) (Fmoc-EW[X31]PG-NH2; ester 1-3; configuration not given here),–,> 100
CCOC(=O)c1c(C)n(C)c2c1cc(O)c1[nH]c3c(c12)CCCC3,–,60.3
CCc1cc(CCC(=O)Nc2ccccc2[N+](=O)[O-])[nH]c(=S)n1,–,> 100
